Laboratory results published in publication PMC4336329 (PLoS ONE, 2015).
In all, about 310,000 compounds went through this assay and about 14,000 (4.5%) showed an effect of 50% or more. The effect is printed as a negative number. The list shows a part of the results.

biological target: human ether-à-go-go-related gene (hERG) potassium channel (human, UniProt Q12809); test: primary screen, population patch clamp on CHO cells stably expressing hERG
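Note: peak tail current of the secondary pulse compared with the same well before compound.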

human ether-à-go-go-related gene (hERG) potassium channel, sequence (Q12809 whole entry, looked up): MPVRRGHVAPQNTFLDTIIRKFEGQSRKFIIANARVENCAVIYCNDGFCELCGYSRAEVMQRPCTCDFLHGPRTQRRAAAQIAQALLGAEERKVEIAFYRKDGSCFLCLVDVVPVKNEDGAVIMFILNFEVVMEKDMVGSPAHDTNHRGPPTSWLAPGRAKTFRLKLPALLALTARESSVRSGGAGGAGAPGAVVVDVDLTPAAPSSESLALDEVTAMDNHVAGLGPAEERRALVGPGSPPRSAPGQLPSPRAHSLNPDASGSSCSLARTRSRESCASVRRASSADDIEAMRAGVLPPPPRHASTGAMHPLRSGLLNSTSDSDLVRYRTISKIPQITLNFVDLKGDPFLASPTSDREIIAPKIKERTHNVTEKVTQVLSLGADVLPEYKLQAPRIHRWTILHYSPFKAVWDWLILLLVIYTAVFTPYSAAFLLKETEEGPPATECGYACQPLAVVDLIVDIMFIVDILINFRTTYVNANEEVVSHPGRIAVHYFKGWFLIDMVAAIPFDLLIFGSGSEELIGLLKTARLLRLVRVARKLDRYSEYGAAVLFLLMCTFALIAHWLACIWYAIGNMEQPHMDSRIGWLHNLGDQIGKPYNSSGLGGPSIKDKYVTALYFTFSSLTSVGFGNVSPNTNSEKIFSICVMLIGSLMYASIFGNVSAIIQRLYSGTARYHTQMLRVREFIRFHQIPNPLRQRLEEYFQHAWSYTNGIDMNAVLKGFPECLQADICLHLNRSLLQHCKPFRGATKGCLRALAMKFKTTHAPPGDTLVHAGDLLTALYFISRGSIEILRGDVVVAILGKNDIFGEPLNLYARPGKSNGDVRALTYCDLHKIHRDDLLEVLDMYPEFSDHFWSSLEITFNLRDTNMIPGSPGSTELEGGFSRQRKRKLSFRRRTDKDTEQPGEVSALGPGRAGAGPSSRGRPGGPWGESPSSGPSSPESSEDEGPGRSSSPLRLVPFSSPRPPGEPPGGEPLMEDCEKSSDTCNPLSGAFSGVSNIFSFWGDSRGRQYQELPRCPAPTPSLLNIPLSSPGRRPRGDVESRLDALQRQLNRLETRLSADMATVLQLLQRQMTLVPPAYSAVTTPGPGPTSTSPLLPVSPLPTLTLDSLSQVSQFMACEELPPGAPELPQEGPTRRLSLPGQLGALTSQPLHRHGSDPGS

SMILES | hERG current change (%, negative = inhibition) at 10uM
CCC(c1nnnn1C(C)(C)C)N1CCN(c2cc(Cl)ccc2C)CC1 (stereo not drawn) | -29.6%
COc1cccc(-c2ccc(C#N)c(SCC(=O)NCc3ccco3)n2)c1 | 2.93%
CC(C)CN1CCN(Cc2ccc(Oc3ncccn3)cc2)CC1CCO (stereo not drawn) | -28.5%
Cc1cc(C)cc(OCc2nnc(N)s2)c1 | 3.16%
COc1cc(OC)c(OC)cc1CN1CCN(Cc2ccc(SC)cc2)CC1.O=C(O)C(=O)O | -61.5%
CCc1ccc(NC(=O)c2noc(C(C)C)c2[N+](=O)[O-])cc1 | 6.27%
COc1ccc(-n2nc(C(=O)NCC(=O)N3CCC4(CC3)OCCO4)c3ccccc3c2=O)cc1Cl | -20.3%
COc1ccc(NC(=O)C2C3CCC(O3)C2C(=O)O)c(C)c1 (stereo not drawn) | 4.68%
O=C(O)c1c(NC(=O)c2cccc3ccccc23)sc2c1CCC2 | 5.11%
CCOC(=O)N1CCN(c2c(N3CCN(c4cccc(C(F)(F)F)c4)CC3)c(=O)c2=O)CC1 | -46.4%
O=C(Cn1c2ccccc2c(=O)c2ccccc21)N/N=C/c1ccc(N2CCCC2)c([N+](=O)[O-])c1 | 5.73%
O=[N+]([O-])c1ccccc1/C=C/C=N/Nc1ccc(S(=O)(=O)Nc2ccc(Cl)cc2)cc1[N+](=O)[O-] | 20.8%
O=C(O)c1ccc(/C=N/NC(=S)NCc2ccccc2)cc1 | 22.9%
COCCN1C=C2C(=O)C(C)(OC(=O)CCC(=O)OC)C(=O)C(Br)=C2C=C1c1ccc(OC)cc1 (stereo not drawn) | 7.96%
CC(=O)Nc1ccc(S(=O)(=O)N2CCN(C(=O)N3CCCCC3)CC2)cc1 | 13.2%
CCCCCCCc1c(C)nc(N2CCOCC2)[nH]c1=O | -6.68%
OC12Oc3ccccc3C=C1N1CCC2CC1 (stereo not drawn) | 4.03%
COc1ccc(CNC(=O)c2oc3ccc(S(=O)(=O)N4CCOCC4)cc3c2C)cc1 | 7.71%
Cc1cccc(C)c1NC(=O)C1NC(=O)CC1c1ccccc1 (stereo not drawn) | -8.95%
COc1ccccc1CN(C)C(=O)c1cccc(S(=O)(=O)N2CCN(Cc3ccccc3)CC2)c1 | -17.3%
CC(OC(=O)CNC(=O)c1ccc(Cl)c([N+](=O)[O-])c1)C(=O)NCc1ccco1 (stereo not drawn) | -10.1%

SMILES | hERG current change (%, negative = inhibition) at 10uM
CCN(CC)C(=O)CSc1nc2c(c(-c3cccnc3)c1C#N)CCCC2 | -35.8%
CC1(C)CC(NC(=O)C2CCN(S(=O)(=O)c3ccccc3C(F)(F)F)CC2)CC(C)(C)N1 | 11.1%
O=c1c2ccccc2nnn1Cc1ccccc1 | 35.3%
C/C=C\C=C\C(=O)Nc1cccc(C2=NOC3(C2)C[C@@H](C(N)=O)N(C(=O)C(c2ccccc2)c2ccccc2)C3)c1 (stereo partly drawn) | 0.545%
O=C1NCCN/C1=C\C(=O)c1ccc(Br)cc1 | 6.85%
Cc1cc(NC(=O)C2CC(c3ccc(F)cc3)=NO2)no1 (stereo not drawn) | -4.27%
COc1cccc(/C=C2\SC(=S)N(CCC(=O)NNC(=O)c3ccccc3OC)C2=O)c1 | 18.5%
Cc1cccc(CN2C(=O)NC(c3ccccc3)(c3ccccc3)C2=O)c1 | -32.1%
Cc1[nH]c(C)c(S(=O)(=O)NCc2ccc(OC(C)C)cc2)c1C(=O)N1CCCC1 | 11.1%
C=CCn1c(SCn2nnc3ccccc3c2=O)nnc1-c1ccc(Br)cc1 | -62.7%
O=C(NCc1ccccc1Cl)C(=O)NCC1OCCN1S(=O)(=O)c1ccc(F)cc1 (stereo not drawn) | -13.2%
Cc1nc2nc3c(cn2n1)C(=O)CCC3 | -1.49%
COc1ccc(C(CCNCc2ccc(OC(C)C)cc2)c2ccccc2OC)cc1 (stereo not drawn) | -76%
OC(c1ccccc1)(c1ccccc1)C1CCN(C(=S)NCCc2ccccc2)CC1 | 16.3%
O=C(NC1(C(F)(F)F)Oc2ccc(Cl)cc2O1)N1CCC2(CC1)OCCO2 (stereo not drawn) | 13.2%
Cc1csc(NC(=O)Cc2ccc(Br)cc2)n1 | 4.97%
CCCCN(C)CCCNC(=O)C1CCC(CNS(=O)(=O)c2c(C)cc(C)cc2C)CC1 (stereo not drawn) | -77.3%
Cc1nnsc1C(=O)Nc1ccccc1 | 18.2%
O=C(CCN1C(=O)S/C(=C\c2ccc(F)cc2)C1=O)Nc1ccc(O)cc1C(=O)O | 14.2%
CCn1c(=N)n(CCOc2ccc(OC)cc2)c2ccccc21 | -55.1%
Fc1ccc2c(c1)[C@H]1OCC[C@H]1[C@@H](c1ccco1)N2 | -8.3%
